# Results taken from PubChem BioAssay AID2060894 (Molecular Pharmacology Branch, DTP, NCI, 2025).
# Certain results were filed several times, with different values. Only these are listed. There may be further records. The values listed for one entry are repeated measurements (runs, samples, wells, individuals or studies). A date in brackets names the month of the test. Brackets with × say how often a value occurs here.
# Test system: K12877-001-R-J1-PDC complex spheroid viability
# Assay: Anticancer human tumor K12877-001-R-J1-PDC patient-derived lung adenocarcinoma cell line growth inhibition [RAS]
# Settings: for viability, T/C: stronger effect = lower value; for IC50: compound alone
# Source text: RAS pathway inhibitors in Combinations in Complex Spheroids
# A high-throughput screen of multi-cell type tumor spheroids was designed to identify active combinations of RAS pathway inhibitors and targeted small molecules. Complex spheroids include a stromal component modeled by human endothelial cells (HUVEC) and fibroblasts modeled by human mesenchymal stem cells (MSCs). The concentration ranges selected for each drug and investigational agent were based upon clinically achievable concentrations if the clinical Cmax of the agent was known.
# Compounds. The drugs and investigational agents: abemaciclib (NSC768073), cobimetinib (NSC768068), divarasib (GDC6063, NSC841802), docetaxel (NSC628503), GDC-1971 (RLY-1971, NSC841576), gemcitabine (NSC613327), inavolisib (NSC800729), ipatasertib (NSC767898), KB-0742 (NSC834161), MRTX-1133 (NSC836407), osimertinib (NSC779217), RMC-4630 (NSC839698), RMC-6236 (NSC851965), RMC-6291 (NSC852671), Ro-3306 (NSC812927), sapanisertib (NSC764658), SN-38 (NSC673596), staurosporine (NSC755774), SY5609 (NSC837396), and tovorafenib (DAY101, NSC766906), were obtained from the National Cancer Institute (NCI) Developmental Therapeutics Program Chemical Repository. The FDA-approved anticancer drug set is available from the NCI Developmental Therapeutics Program. […] The stock solutions were prepared in dimethyl sulfoxide (DMSO, Sigma-Aldrich, St. Louis, MO, cat. D2650) at 800-fold the tested concentration and stored at -70 degrees C prior to their use. All drugs and investigational agents were tested over a range starting from a high concentration at or near the clinical Cmax and decreasing in half-log increments. If the clinical Cmax for an agent had not been determined, the highest concentration tested was 10 microM.
# Cell Culture. All cells were maintained in an incubator at 37 degrees C and 5% CO2 with 95% humidity. The PDC lines were cultured according to standard operating procedures established by the NCI PDMR. All PDCs were thawed and cultured in Matrigel-coated flasks prepared with a working solution of 1X Ham's F-12 nutrient mix, without supplementation (Invitrogen, Waltham, MA, cat. 11765054), 100 U/mL penicillin-streptomycin (Invitrogen, cat. 15140122), and 2.5% Matrigel (Corning Inc., Corning, NY, cat. 354248) for the first three passages. The 362531-283-R-J2-PDC and 782815-120-R-J1-PDC lines were cultured in 6C/Colon 1B media, which includes advanced DMEM/F-12 (Thermo Fisher Scientific, cat. 12634028), 10 mM HEPES (Thermo Fisher Scientific, cat. 15630080), 1X GlutaMAX supplement (Thermo Fisher Scientific, cat. 35050061), 0.1 mg/mL primocin (InvivoGen, San Diego, CA, cat. ant-pm-2), 10% defined fetal bovine serum, heat inactivated (HyClone Laboratories Inc., Logan, UT, cat. SH30070.03HI), 50% L-WRN conditioned media (ATCC, cat. CRL-3276), 1.25 mM N-Acetyl-L-cysteine (Sigma-Aldrich, cat. A9165), 10 mM nicotinamide (Sigma-Aldrich, cat. N0636), 1X B-27 supplement (Thermo Fisher Scientific, cat. 17504044), 1X N-2 supplement (Thermo Fisher Scientific, cat. 17502048), 50 ng/mL human EGF (Thermo Fisher Scientific, cat. PHG0311), and 10 microM Y-27632 dihydrochloride (Tocris Bioscience, cat. 1254). The K12877-001-R-J1-PDC line was cultured in 6I media, which includes all 6C/Colon 1B media plus 10 ng/mL human FGF-10 (PeproTech, cat. 100-26), 1 ng/mL human FGF-2 (PeproTech, cat. 100-18B), 1 µM prostaglandin E2 (Tocris Bioscience, cat. 2296), […] hydrocortisone (Sigma-Aldrich, cat. H4001), and […] bovine insulin (Sigma-Aldrich, cat. I6634). The K86415-001-R-J1-PDC line was cultured in 6D media, which includes all 6C/Colon 1B media components minus the L-WRN conditioned media. The 485176-168-R4-J1-PDC was cultured in PANC media, which includes all 6C/Colon 1B media plus 100 ng/mL human FGF-10 (PeproTech, cat. 100-26), 500 nM SB-431542 (Selleckchem, cat. S1067), and 10 nM gastrin (Tocris Bioscience, cat. 3006). […]
# 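Further: spheroids exposed to agents for one week before readout.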
smiles,measurement,setting,value
CC1(C)CCC(Nc2ncc(C(F)(F)F)c(-c3c[nH]c4c(P(C)(C)=O)c(C#N)ccc34)n2)CN1 (stereo not given),"viability, T/C",compound alone 0.003 µM,"81.2%, 109% [2024-08] and 90.6%, 95.8% [2024-09]"
same,"viability, T/C",compound alone 0.00949 µM,"66.8%, 115% [2024-08] and 99.2%, 81.2% [2024-09]"
CCc1c2c(nc3ccc(O)cc13)-c1cc3c(c(=O)n1C2)COC(=O)[C@]3(O)CC,"viability, T/C",compound alone 0.003 µM,"51.6%, 98.8% [2024-08] and 79.2%, 80.7% [2024-09]"
Cc1nc(N2CCC3(CC2)COC(C)C3N)c(CO)nc1Sc1ccnc(N)c1Cl (stereo not given),"viability, T/C",compound alone 0.0316 µM,"114%, 86.5% [2024-08] and 103%, 111% [2024-09]"
same,"viability, T/C",compound alone 3.16 µM,"80.2%, 72.1% [2024-08] and 84.6%, 97.4% [2024-09]"
CC1(O)CCCC1n1c(=O)c(C(F)F)cc2cnc(NC3CCN(S(C)(=O)=O)CC3)nc21 (stereo not given),IC50,,"683 nM, 4.03 µM [2024-08] and 4.16 µM, 2.67 µM [2024-09]"
same,"viability, T/C",compound alone 0.1 µM,"75.9%, 120% [2024-08] and 94.3%, 102% [2024-09]"
same,"viability, T/C",compound alone 0.316 µM,"43.7%, 82% [2024-08] and 77.3%, 67.1% [2024-09]"
same,"viability, T/C",compound alone 1 µM,"52.5%, 73.6% [2024-08] and 79.1%, 71.3% [2024-09]"
same,"viability, T/C",compound alone 3.16 µM,"45.3%, 74% [2024-08] and 67.8%, 59.2% [2024-09]"
CCn1c(-c2cc(N3CCN(C)CC3)cnc2C(C)OC)c2c3cc(ccc31)-c1csc(n1)CC(NC(=O)C1CC1C)C(=O)N1CCCC(N1)C(=O)OCC(C)(C)C2 (stereo not given),"viability, T/C",compound alone 0.03 µM,"91, 93.5, 81.1, 93.9, 92.9, 71.6, 102, 101%"
CC(Nc1ccc2c(c1)OCCn1cc(N3C(=O)OCC3C(F)F)nc1-2)C(N)=O (stereo not given),IC50,,"6.42 µM, > 10 µM [2024-08] and 7.83 µM, 3.21 µM [2024-09]"
same,"viability, T/C",compound alone 0.1 µM,"88.8%, 101% [2024-08] and 70.1%, 83.5% [2024-09]"
same,"viability, T/C",compound alone 0.316 µM,"92%, 78.4% [2024-08] and 78.5%, 61.7% [2024-09]"
same,"viability, T/C",compound alone 3.16 µM,"61%, 89.9% [2024-08] and 60.5%, 53.6% [2024-09]"
same,"viability, T/C",compound alone 10 µM,"44%, 60.5% [2024-08] and 46.3%, 29.8% [2024-09]"
CC(C)NCC(C(=O)N1CCN(c2ncnc3c2C(C)CC3O)CC1)c1ccc(Cl)cc1 (stereo not given),IC50,,"5.43 µM, > 10 µM [2024-08] and 6.31 µM, 2.8 µM [2024-09]"
same,"viability, T/C",compound alone 0.316 µM,"95.5%, 115% [2024-08] and 79.1%, 98% [2024-09]"
same,"viability, T/C",compound alone 1 µM,"84.6%, 130% [2024-08] and 88%, 74.1% [2024-09]"
same,"viability, T/C",compound alone 3.16 µM,"63.7%, 76.9% [2024-08] and 59.3%, 47.4% [2024-09]"
same,"viability, T/C",compound alone 10 µM,"34.3%, 58% [2024-08] and 41.8%, 30.8% [2024-09]"
C=CC(=O)N1CCN(c2nc(OCC3CCCN3C)nc3c(F)c(-c4nc(N)cc(C)c4C(F)(F)F)c(Cl)cc23)C(C)C1 (stereo not given),"viability, T/C",compound alone 0.01 µM,"82.2%, 73.7% [2024-08] and 84.7, 105, 92.4, 91.5, 101, 96.2, 96.6, 102 (2×), 88.8% [2024-09]"
same,"viability, T/C",compound alone 0.0316 µM,"76.7%, 75.4% [2024-08] and 77.2, 83, 82.4, 88.5, 88.8, 94.7, 97.5, 101, 100, 75.8% [2024-09]"
same,"viability, T/C",compound alone 1 µM,"75.3%, 66.4% [2024-08] and 75.8, 88.2, 88.7, 78.3, 93.7, 89.8 (2×), 82, 88.6, 83.8% [2024-09]"
NC1c2ccccc2OC12CCN(c1cnc3c(N4CCCc5ncccc54)n[nH]c3n1)CC2 (stereo not given),"viability, T/C",compound alone 0.316 µM,"91%, 63.4% [2024-08] and 94.4%, 92.8% [2024-09]"
same,"viability, T/C",compound alone 1 µM,"75.2%, 58.5% [2024-08] and 90.9%, 86.3% [2024-09]"
same,"viability, T/C",compound alone 3.16 µM,"75.4%, 56.2% [2024-08] and 83.9%, 81.6% [2024-09]"
CC(C)n1nc(-c2ccc3oc(N)nc3c2)c2c(N)ncnc21,"viability, T/C",compound alone 0.001 µM,"83.7%, 114% [2024-08] and 86.2%, 94.4% [2024-09]"
same,"viability, T/C",compound alone 0.01 µM,"98.5%, 113% [2024-08] and 85.5%, 78.2% [2024-09]"
O=C(c1ccc(F)c(F)c1Nc1ccc(I)cc1F)N1CC(O)([C@@H]2CCCCN2)C1,"viability, T/C",compound alone 1 µM,"37.9%, 50.1% [2024-08] and 56.9%, 63.3% [2024-09]"
